From the supplement of paper PMC4466236
Whole data set: some 33,000 sequences, median “E-score (dimensionless, -0.5 to 0.5)” near -0.058, cut for the highest 2% near 0.35. The list shows a part of the results.

test system: MvaT; assay: PBM 8-mer E-score (mean of HK and ME arrays) (E-score (dimensionless, -0.5 to 0.5)); higher = stronger relative binding preference; most listed sequences are background and not binding sites
Outline: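 Full-length P. aeruginosa MvaT carrying an N-terminal glutathione S-transferase tag was tested by protein binding microarray following a previously described protocol. Two universal double-stranded 60-mer arrays, ME and HK, were used, each with a constant 25-mer primer region and a variable 35-mer region covering all 8-mers. The rank-based E-score is the mean of the two arrays, parsed with a custom script. Its range runs from -0.5 to 0.5 for each 8-mer.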

Sequence	PBM 8-mer E-score
AGATTGGA	0.0296
CCTATACC	-0.173
CAGACAGG	-0.294
AATACAAA	0.357
ACGCGGTG	-0.0906
GAAGATGC	-0.101
CCGATATC	0.107
AAGGGCTG	-0.287
ACAAGTCA	0.0671
AGATGCTA	-0.0257
ACACGTGG	-0.0285
AAATGCAT	0.257
ATGACAGG	-0.193
CTGTCGGA	-0.179
GGCATAAC	-0.00208
AACATGGG	-0.0992
TGCAGGCA	-0.0892
TACAGTGA	0.0166
AGCAAGGC	-0.134
CCAATCGC	-0.18
ACCCTTGG	-0.266
TCCAGCCA	-0.254
ACCTGGAG	-0.224
TACTGCAA	0.108
CGCATAAC	0.0836

Sequence	PBM 8-mer E-score
ATTACGTC	0.155
AACTTGCT	0.193
TATTCCGA	0.227
CACGATTC	-0.0824
AACAAGGC	-0.0896
CGAAACAC	0.0148
GACTTCCC	-0.205
GCTCGACA	-0.195
CAGGCCTC	-0.355
GGACGGGA	-0.122
GAGTAAGA	0.0151
AACCACTA	-0.0695
GCTTAACC	-0.107
ACGATCGA	-0.0415
AGTGCAGC	-0.0911
ATCACGGC	-0.0541
GTTCCTGA	-0.0186
AGTGACGC	-0.109
AATATGAT	0.345
CGCTTTTA	0.062
CTAGAGGC	-0.228
GTGCCGGA	-0.131
CCGTCTCG	-0.252
ACACACCA	0.072
GTAGACGA	-0.0708

Sequence	PBM 8-mer E-score
CCTACGCC	-0.303
AGAGCGAG	-0.174
ATCACGCC	-0.119
GACCAACA	0.0491
ATAGAAGA	0.0897
ACATAGGT	-0.0135
GCATCATA	0.108
GAAAGTAC	0.0989
AGAGCCCC	-0.343
CCACATAC	0.158
ACACTTGA	0.0546
TCATAGAA	-0.00823
GACGATAC	-0.0716
AATTTAAT	0.431
GCGAGAGC	-0.213
AGACAATA	0.223
CATTATCA	0.169
ACCGCTAA	0.0156
AGCGAAAG	-0.0475
TAGTATGA	0.133
CGAAAGAG	-0.0656
GCAAATGA	0.138
AATTTGCT	0.174
CAAATGCA	0.131
TCAGGAAA	0.0241

Sequence	PBM 8-mer E-score
ATATTGGA	0.265
AAGTGATC	-0.109
CTCGGTCA	-0.209
CCGAGCCA	-0.148
ACCCGGGG	-0.243
TAGTGGGA	0.118
GATTACGC	0.0125
ATCTTGTA	0.106
TACGGACA	-0.00539
AGAATGTC	-0.167
GACAGTGA	-0.0698
TACACGCA	0.119
TAAGCCAA	0.0873
ACACAATA	0.278
GAAAGCGA	0.0347
AACTGCTA	0.00726
CCCAAAGA	-0.107
CAGGTGTC	-0.277
AGCCTCTG	-0.314
GATCTAGA	-0.000593
ACATCCAT	0.144
AACTAAGA	0.204
AGATTTCA	0.00665
TATTAAGA	0.366
GTATTTGA	0.319

Sequence	PBM 8-mer E-score
ATCTATTC	0.12
GGAGCGAA	-0.245
ATGGCATC	-0.214
CGGTACGC	-0.229
GGGCAGTA	-0.171
GGGTCACA	-0.0551
CCTGTTCC	-0.192
CGTCGCAC	-0.232
ACGGGATG	-0.224
TCGAAGCA	-0.0397
CGCCATAA	0.111
GAGAACAC	0.0243
GAACCACA	-0.152
GACGTGAC	-0.112
CGGACGTC	-0.21
ACCCAGAT	-0.0429
ATAAGTCC	0.116
TAATGAGA	0.103
CCTGGTCC	-0.313
CAAGTCTA	0.0298
TAGGGCGA	-0.0229
GGCTCTCA	-0.222
CATACTTA	0.314
AGTGATTA	0.258
AATCTGAC	-0.000891

Sequence	PBM 8-mer E-score
CCCTCCGA	-0.213
CGACTATC	-0.0568
ATAGAAAT	0.16
ATCCCCAA	0.0566
AACACGCT	0.0229
AATCATAC	0.219
ACCGTCTA	-0.0941
GAGCACGC	-0.274
AAAGTCGA	0.0426
CTTTTCTC	-0.00236
ACTCTAGC	-0.214
CTGTGTCC	-0.11
TAGCCCTA	-0.21
ACTCGGTA	0.0381
AAGATCAG	0.181
CTCTGATA	0.0481
CGCGCAGC	-0.342
CCTATTCG	-0.182
AGAACGAG	-0.213
TCCAGGCA	-0.215
CGATGTCA	-0.0694
AACGCTAG	-0.165
CCATCATC	-0.162
ACGTCTCT	-0.162
CGTCCAAC	-0.205

Sequence	PBM 8-mer E-score
CTAGGCTC	-0.237
ACCGCGTG	-0.176
GCTCACAA	-0.0424
ATATCAAC	0.338
CAGCATGA	-0.0677
AAATATCT	0.277
ACCGGGTA	-0.126
AAGACACA	0.0387
GTCCCGAA	-0.0191
ATAGTATG	0.21
ATAACCTC	0.166
CAGTGTAG	0.0703
ACTTACGA	0.28
AGGGTGGA	-0.109
GGAACTAC	-0.0248
CGGGAAGC	-0.143
GAAAAACA	0.0375
CCCTGGCA	-0.134
TAGGAGGA	-0.23
ACCTCAAA	-0.00608
CACCCGCC	-0.256
AACACCCC	-0.192
CTTACGGC	-0.205
AAACCGGA	-0.0734
CCGTCCTC	-0.24

Sequence	PBM 8-mer E-score
AACCTTTA	0.192
GCTTTGCA	0.00198
CTGGCGCA	-0.062
GACGAGTA	0.0969
AGAGTTAT	0.262
GACACAGC	-0.219
CCCCCGCC	-0.384
CCAAGTAA	0.155
GTGCCCAC	-0.127
CTTTTAGA	0.0225
CCTCTCTA	-0.0699
CTCTTGTA	0.119
GGCACGGA	-0.224
CTCCATAC	-0.0527
ACACTAGG	0.0577
GACGCTTA	-0.00715
GCGCGTGA	-0.221
AAAACCAC	0.037
GGGTACAC	-0.0872
CCCAAGCA	-0.173
CATACAGC	-0.146
GAAGCTCC	-0.307
AGTCGTAA	0.078
GCCACGGC	-0.266
GGGAGCAA	-0.119

Sequence	PBM 8-mer E-score
GCTCCAGC	-0.299
CAATACTC	0.106
ATGAGCTC	-0.23
CGATGGGC	-0.122
CTCTGTTC	-0.0179
CTAGAAAA	0.134
CACGCGGC	-0.198
GGTAAAAA	0.186
GCTAAAGA	0.0223
TCTGATAA	0.24
TATCCAAA	0.1
AAGGACAC	-0.163
ACTGTCGC	-0.0147
GTGCCTCA	-0.193
GGTGGAAA	-0.0874
CACAAAGA	0.107
GGCTTCGA	-0.221
ACGTAGAT	0.107
GATTCCAC	-0.0141
